First the molecules themselves.
B1: CPEB3 Ribozyme (parent)
chain: UAACAGGGGGCCACAGCAGAAGCGUUCACGUCGCAGCCCCUGUCAGAUUCUGGUGAAUCUGCGAAUUCUGCUGUAUAUCUC

Read counts are not given, so values of variants with three or more changes are uncertain.

The source of these data is the RNAGym collection of RNA variant scans (doi:10.1093/nar/gkz1192).

Variants of B1 are the subject of this data set. The data set can be described thus: self-cleavage, relative activity (ratio to wild type); higher = more cleavage; in vitro, sequencing. Summed up: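 Barcoded CPEB3 ribozyme mutants, produced by rounds of error-prone PCR, self-cleaved while being transcribed with T7 RNA polymerase for 5 hours at 37°C and during a subsequent 15 min DNase I step before EDTA was added. Sequencing of template-switched cDNA on Illumina gave cleaved and total reads, and DNA sequencing assigned barcodes to variants. Each variant's relative activity is its cleaved/total read fraction divided by the unmutated ribozyme's fraction, averaged across three batches. A variant needed a minimum of 5 reads.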
In the case of UAACAGGGGGUCACAGCAGAAGCGUUCACGUCGCAGCCCCUGUCAGAUUCUGGUGGAUCUGCGAAUUCUGCUGUGUAUCUC, the self-cleavage turned out to be 0.11. For UAACAGGGGGUCACAGCAGAAGCGUUCAUGUCGCAGCCCCUGUCAGACUCUGGUGAAUCGGCGAAUUCUGCUGUAUAUCUC, the self-cleavage stood at 0.27.

UAACAGGGGGUUACAGCAGAAGCGUUCACGUCGCAGCCCCCGUCAGAUUCUGGUGAAUCUGCGAAUUCUGCCGUAUAUCUC: the self-cleavage is 1.28. With UAACAGGGGGUCACAGCAGAAGCGUUCGCGUCGCAGCCCCUGUCAGAUUCUGGUGAAUCUGCGAAUCCUGCUGUUUAUGUC, the self-cleavage was found to be 0.11. The value for UAACAGGGGGUCACAGCAGAAGCGUUCACGUCGCGGCCCCUGUCAGAUUCUGGUGGAUCUGCGAAUUCUGCUGUAUAUCUC was 1.2; that for UAACAGGGGGUCACAGCAAAUGCGUUCACGUCGCAGCCCCUGUCGGAUUCUGGUGAAUCUGCGAAUUCUGCUGUAUAUCUC was 0.05. The same measure for UAACAGGGGGUCACAGCAGAAGCGUUCACGUCGCAGCCCAUGUCAUAUACUGGUGAAUCUGCGAAUCCUGCUGUAUAUCUC: 0.12; for UAACAGGGGGUCACAGCAGAAGCGUUCGCGUCGCUGCCCCUGUCAGAUUCUGGUGAAUCUGCGAAUUCUGCCGUAUAUCCC: 0.19. On to UAACAGGGGGUCACAGCAGAAGCGUUCACGUCGCAGACACUGUCAGAUUCUGGUGAAUCUGCGAAUUCUGCCGUAUAUCUC, for which the self-cleavage came out at 0.23. On to UAACAGGGGGUCACAGCAGAUGCGUUCGCGUCGCAGCCCCUGUCAGAUUCUGGUGAAUCUGCGAAUUCUGCUGUACAUCUC, for which the self-cleavage stood at 0.04.

With UAACAGGGGGUCACAGCAGAAGCGUUCGCGUCGCAGCCCCUGUCAGAUUCCGGUGAAUCUGCGAAUUCUGCUGUAUAUCUC, the self-cleavage came to 0.14. Turning to UAACAGGGGGUCACAGCAGAAGCGUUCACGUCGUAGCCCCUGUCAGAUUCUGGUGAAUCUGCUAAUUCUGCUGUAUAUCUC, the self-cleavage came out at 0.09. UAACAGGGGGUCACAGCAGAAGCGUUCGCGUCGCAGCCCCCGUCAGAUUCUGGUGAAUCUGCGAAUUCUGCUGUAUAUCUC: the self-cleavage stood at 0.4. As for UAACAGGGGGUCACAGCAGAAGCAUUCACGUCGCAGCCCCUGCCAGAUUUUGGUGAAUCUGCGAGUUCUGCUGUAUACCUC, the self-cleavage was 0.07. With UAACAGGGGGUCACAGCAGAAGCGUUCACGUCGCAGCCCCUGUCAGAUUCUGGUGAAUCUGCGUAUUCUGCUGUAUAUCCC, the self-cleavage came out at 0.45.

For the variant UAACAGGGGGUCACAGCAGAGGCGUUCACGCCGCAGCCCCUGUCAGAUUCUGGUGAAUCUGCGAAUGCUGCCGUAUAUCUC, the self-cleavage came out at 0.04.

Regarding UAACAGGGGGUCACAUCAGAAGCGCUCACGUCGCAGUCCCUGUCAGAUUCUGGUGAAUCUGCGAAUUCUGCUGUAUAUCUC, the self-cleavage was determined as 0.05. On to UAACAGGGGGUCACAGCAGAAGCGUUCGCGUCGCAGCCCCUGUCAGAUUCUGGUGAAUCCGCGAAUUCUGCUGUAUAUGUC, for which the self-cleavage was found to be 0.25. Turning to UAACAGGGGGUCACAGCAGAAGCGUUCACGUCGCAGCCCCUGUCUGAUUCUGGUGAAUCUGCGAUUUCUGCUGUAUAUCUC, the self-cleavage worked out at 0.4.

As for UAACAGGGGGUCACAGCAGAAGCGUUCACGUCGCAGCCCCUGUCAGAUUCUGGUGAUUCUGCGAAUUCUGCUGUGUAUCUC, the self-cleavage came out at 0.07.

Regarding UAACAGGGGGUAACAGCAGAAGAGUCCACUUCGCAGCCCCUGUCAGAUUCUGGUGAAUCUGCGAACUCCGCUGUAUAUCUC, the self-cleavage is 0.07. The value for UAACAGGGGGUCACAGUAGAAGCGUUCACGUUGCAGCCCCUGUCAGGUUCUGGUGUAUCUGCGAAUUCUGCUGUGUAUCUC was 0.03; that for UAACAGGGGGUCACAGCAGAAGCGUUCACGUCGCGGCCCCUGUCAGAUUCUGGUGAAUCUGCGAAUUCUGCAGUAUAUCUC was 1.21; that for UAACAGGGGGUCACAGCAGAAGUGUUCACGUCGCAGCCCCCGUCGGAUUCUGGUGAAUCUGCGAAUUCUGCUGUAUAUCUC was 0.39.

As for UAACAGGGGGUCACAGCAGAUGCGUUCACGUCGCAGCCCCUGUCAGAUUCUGGGGAAUCUGCGAAUUCUGCUGUAUAUCUC, the self-cleavage was found to be 0.06. On to UAACAGGGGGUCACAGCAGAAGCAUUCACGUCGCAGCCCCUGUCAGAUUCUGGCGAAUCUGCGAAUUCUGCUGUAUACCUC, for which the self-cleavage turned out to be 0.04. In the case of UAACAGGGGGUCACAGCAGAUGUGUUCACGUCGCAGCCCAUGUCAGAUUCUGGUGAAUCUGCGAAUUCUGCUGUACACCUC, the self-cleavage came to 0.05. For UAACAGGGGGUCACAGCAGAAGCGUUCACGUCGCAGCCCCUGUCAGAUUCUGGUGGAUCUGCGAAUUCUGUUGUAUAUCUC, the self-cleavage is 0.11.

For UAACAGGGGGUCACAGCAGAAGCGUUCACGUCGCGGCCCCUGUCAGAUUCUGGUGAAUCUGCGAAUUCUGCUGUAUGUCUC, the self-cleavage was 1.3. As to UAACAGGGGGUCACAGCAGAAUCGUUCACGUCGCAGCCCCAGUCAGACUCUGGUGAAUCUGCGAGUUCUGCUGUAUAUCUC, the self-cleavage was determined as 0.12.

For the variant UAACAGGGGGUCACAGCAGAAGCGUUCACGUCGCAGCCCCUGUCAGAUUCUGGUGAAUCUGCGAGUUCGGCUGUAUAUCCC, the self-cleavage was found to be 0.1. On to UAACAGGGGGUCACAGCAGAAGCGUUCACGUCGCAGCCCCUGUCAGAUUCUGGUGAAUCUGUGAAUUCUGCAGUAUAUCAC, for which the self-cleavage was 0.09. With UAACAGGGGGUCACAGCAGAAGCGUUCACGUUGCAGCCCCUGUCAGCUUCUGGUGAAUCCGCGGAUUCUGCUGUAUAUCUC, the self-cleavage was 0.14.

As to UAACAGGGGGUCACAGCAGAAGCGUUCACGUCGCAGCCCCUGUCAGAUUCUGGUGAAUCUGCGGACUCAGCUGUAUAUCUC, the self-cleavage worked out at 0.13.
